# According to PubChem BioAssay AID488969 (Vanderbilt High Throughput Screening Facility, 2010):
# In all, about 110,000 compounds were measured (“z-score”: median about -0.1, highest 2% from about 2 on). Some of the results follow.
# Target: Metabotropic glutamate receptor 8 (Rattus norvegicus) (UniProt P70579)
# Assay: mGluR8 Gi/Go-coupled signaling modulation – cell-based, rat, thallium flux, HTS, primary screen (AID 488969)
# Settings: HEK293 rat mGluR8, GIRK (G protein-gated inwardly rectifying potassium channel) thallium flux, FluoZin2; at 10 µM; stronger effect = higher value; submaximal glutamate (EC20) added with thallium
# UniProt P70579, sequence (P70579 whole entry, looked up): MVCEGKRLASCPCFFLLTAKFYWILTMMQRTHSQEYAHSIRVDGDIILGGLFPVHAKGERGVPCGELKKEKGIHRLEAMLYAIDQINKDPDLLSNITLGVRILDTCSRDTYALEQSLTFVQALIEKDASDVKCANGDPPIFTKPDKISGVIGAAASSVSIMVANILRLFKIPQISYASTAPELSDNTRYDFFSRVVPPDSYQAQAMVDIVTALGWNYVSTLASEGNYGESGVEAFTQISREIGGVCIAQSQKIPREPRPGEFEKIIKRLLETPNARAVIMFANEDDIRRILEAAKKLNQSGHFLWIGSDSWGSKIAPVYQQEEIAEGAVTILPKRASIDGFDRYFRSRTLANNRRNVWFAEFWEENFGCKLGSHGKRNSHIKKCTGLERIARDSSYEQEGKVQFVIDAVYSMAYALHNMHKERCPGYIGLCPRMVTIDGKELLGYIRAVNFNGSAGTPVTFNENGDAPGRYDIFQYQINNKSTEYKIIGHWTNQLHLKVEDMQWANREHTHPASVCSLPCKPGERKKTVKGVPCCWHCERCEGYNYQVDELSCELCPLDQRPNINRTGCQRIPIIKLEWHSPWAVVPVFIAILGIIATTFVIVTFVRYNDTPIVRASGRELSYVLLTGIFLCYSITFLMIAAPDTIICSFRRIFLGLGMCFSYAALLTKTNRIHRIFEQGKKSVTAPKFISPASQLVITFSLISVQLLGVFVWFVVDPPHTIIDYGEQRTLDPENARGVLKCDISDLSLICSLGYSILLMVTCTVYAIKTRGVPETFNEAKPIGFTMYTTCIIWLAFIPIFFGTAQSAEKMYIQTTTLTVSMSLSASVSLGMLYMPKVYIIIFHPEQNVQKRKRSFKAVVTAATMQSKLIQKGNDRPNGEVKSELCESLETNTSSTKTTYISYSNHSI
row,SMILES,z-score
1,O=C(CCNS(=O)(=O)c1cccc2nsnc12)N1CCN(c2ccccn2)CC1,0.415
2,CCOc1cc(NS(=O)(=O)c2ccc(Cl)cc2)c(OCC)cc1NC(=O)CC(C)C,-0.554
3,COc1ccc(S(=O)(=O)Nc2ccc(Oc3ncccn3)c(Cl)c2)cc1,-0.553
4,Cc1nn(-c2ccccc2)c(C)c1/C=C/C(=O)OCC(=O)Nc1ncc(Cl)cc1Cl,-0.544
5,Cc1cccc(NC(=O)CSc2nnc(Cn3nnc(-c4ccccc4)n3)n2-c2ccccc2)c1,1.13
6,Cc1cccc(-n2[nH]c3c4c(ccc3c2=O)C(=O)c2ccccc2C4=O)c1,-0.425
7,Cn1c(=O)c(-c2ccccc2)nn2c3ccccc3nc12,-0.291
8,CS(=O)(=O)N(CC(=O)NCc1ccccc1)C1CCCCC1,0.925
9,C=CCn1c(Cn2nnc3ccccc32)nnc1SCC(=O)N/N=C/c1cc(Br)cc(OC)c1O,-0.21
10,CCCCC(C(=O)O)C(C)CC(=O)Nc1ccn(-c2ccccc2)n1 (centres undefined),-0.321
11,COc1ccc(CCNC(=O)CSc2nnnn2-c2ccccc2OC)cc1OC,0.275
12,Nc1nc(SCC(=O)Nc2ccccc2)[nH]c(=O)c1-c1ccccc1,-0.306
13,CC(=O)Oc1ccc(Cn2cnc3cc4ccccc4cc32)cc1,-0.0735
14,Cc1nc(SCC(=O)NC2CCCC2)[nH]c(=O)c1Cc1ccccc1,0.0283
15,FC(F)(F)c1cccc(NC(=S)NCC(c2cccnc2)N2CCOCC2)c1 (centres undefined),0.278
16,CCn1c(C)cc(=S)c2ccccc21,0.166
17,COc1ccc(-c2cn3cccnc3n2)cc1NC(=O)c1cccs1,-0.211
18,COCCNc1nc2ccccc2nc1NS(=O)(=O)c1ccc(C)cc1C,0.068
19,Cc1ccc(OCC(=O)Nc2sc3c(c2C#N)CCC3)cc1C,-0.0369
20,CC(C)CC(C(=O)OCC(=O)Nc1cccc(Cl)c1)N1C(=O)C2CC=CCC2C1=O (centres undefined),0.307
21,CC(C)Oc1ccc(C2CC(=O)N(c3ccc(N(C)C)cc3)C2=O)cc1 (centres undefined),-0.0638
22,Cc1sc(N/N=C/c2cccnc2)nc1-c1ccccc1,0.388
23,COc1ccccc1CNC(=O)C1CCN(C(=O)N(C)C)CC1,-0.211

row,SMILES,z-score
1,CC(=O)Nc1ccc(Nc2ncnc3c2cnn3-c2ccc(C)cc2C)cc1,-0.117
2,COc1ccc(S(=O)(=O)N(Cc2ccccc2)Cc2nc(-c3ccccc3)no2)cc1,-0.896
3,CCNC(=S)N/N=C/c1ccc(OCCOc2ccccc2C)cc1,0.162
4,C=CCOc1c2ccc(C(=O)NCc3ccccc3OC)cc2nn1C,-0.142
5,Cc1noc(/C=C/N(C)C)c1S(=O)(=O)N1CCCC(C(=O)NCc2cccs2)C1 (centres undefined),-0.27
6,CCC(=O)NC(Nc1cc(C)cc(C)n1)(C(F)(F)F)C(F)(F)F,1.57
7,O=C(c1ccccc1)N1CCN(c2ccc([N+](=O)[O-])c(N3CCOCC3)c2)CC1,-0.439
8,COc1ccc(NC(=O)CCc2nc(-c3ccccc3F)no2)cc1,-0.134
9,CCCc1c(C)c2ccccc2[nH]c1=O,-0.333
10,Cc1cccc(Sc2ccc([N+](=O)[O-])cn2)c1,-1.63
11,O=C(c1ccccc1-c1nc(-c2ccccc2)no1)N1CCCC1,0.545
12,COc1ccc(S(=O)(=O)N2CCN(c3ccc(C)cc3C)CC2)cc1OC,-0.11
13,CCOc1ccc(C(=O)/C=C/c2ccccc2C(F)(F)F)cc1,-0.354
14,CC1Cc2ccccc2N1CC(=O)c1c(N)n(Cc2ccccc2)c(=O)n(C)c1=O (centres undefined),-0.314
15,O=C(CSc1nnc(-c2ccc(F)cc2)o1)Nc1ccc(S(=O)(=O)N2CCCC2)cc1,-0.39
16,COCc1c(C(=O)OC)nnn1-c1ccccc1,0.737
17,O=C(NCC(=O)N(c1ccc2c(c1)OCCO2)C(C(=O)NC1CCCC1)c1ccco1)c1ccco1 (centres undefined),-0.259
18,CCOc1ccc2nc(NS(=O)(=O)c3ccc4c(c3)n(C)c(=O)n4C)sc2c1,0.623
19,COc1ccc2c(c1)CCCC21NC(=O)N(CC(N)=O)C1=O (centres undefined),-0.189
20,Nc1nnc(CCOc2ccccc2Cl)s1,-0.0619
21,O=C(CSC1=Nc2ccccc2C2=NC(Cc3c[nH]c4ccccc34)C(=O)N12)NC1CCCCC1 (centres undefined),-0.234
22,O=C(CN(Cc1cccs1)S(=O)(=O)c1ccc(S(=O)(=O)NC2CCCCC2)cc1)Nc1ccccc1,-0.107
23,O=C(NCc1ccc2c(c1)OCO2)c1cccc(F)c1,-1.05

row,SMILES,z-score
1,CC(C)NC(=O)C1CCCN(S(=O)(=O)c2ccc(-n3cnnn3)cc2)C1 (centres undefined),0.0412
2,CCCCn1c(=O)c(CCC(=O)OC(C)C(=O)Nc2cccc(Cl)c2Cl)nc2ccccc21 (centres undefined),-0.172
3,Oc1cccc(NC(=S)Nc2ccc(SC(F)F)cc2)c1,2.92
4,O=c1ccc(-c2ccccc2)n[nH]1,0.467
5,CCCCNC(=O)CNC(=S)N(CCCN1CCOCC1)Cc1cccs1,-0.324
6,C=CCn1c(CCNC(=O)c2cccs2)nnc1SCC(=O)c1ccc(Br)cc1,1.79
7,COc1ccc(OC)c(S(=O)(=O)N2CCC(C(=O)NCC3CCCO3)CC2)c1 (centres undefined),-0.246
8,CCOc1ccc(C(=O)Nc2cccc(NC(=O)c3cccs3)c2)cc1[N+](=O)[O-],-0.175
9,COc1ccc(C(=O)NCC(=O)Nc2ccc(F)cc2)cc1OC,-0.158
10,COc1cc2c(cc1NC(=O)C(C)Sc1cccc[n+]1[O-])oc1ccccc12 (centres undefined),-1.1
11,COC(=O)CN1C(c2cccc(Cl)c2)=Nc2ccc(Cl)cc2C1c1ccccc1 (centres undefined),-0.337
12,COc1ccc(OC)c(NC(=O)CSc2ccccc2)c1,-0.169
13,OC(CSc1c(Cl)cccc1Cl)CN1CCN(c2ccc(F)cc2)CC1 (centres undefined),-0.688
14,COC(=O)N1CCN(c2ccc(C(C)=O)cc2)CC1,-0.0754
15,Cc1ccc(C)c2[nH]c(=O)c(CN(Cc3ccco3)C(=O)Nc3ccccc3)cc12,-0.38
16,CC(=O)Nc1ccc(NC(=O)CN(c2cccc(C)c2)S(C)(=O)=O)cc1,-1.56
17,CCOc1ccccc1C(=O)Nc1cc(OC)ccc1OC,-0.561
18,COc1ccc(NC(=O)C2CCCCN2S(=O)(=O)c2ccc(F)cc2)c(OC)c1 (centres undefined),1.02
19,CCCCSc1nc(C)cc(C)c1S(=O)(=O)c1ccccc1C,-0.318
20,O=C(c1ccccc1)c1ncc(C(F)(F)F)cc1Cl,0.575
21,CCC(C)(C(=O)NC1CCCCC1)N(C(=O)CNC(C)=O)c1c(C)n(C)n(-c2ccccc2)c1=O (centres undefined),0.0496
22,Cc1cc(C(F)(F)F)nn1CC(=O)N(C)C1CCCCC1,0.278
23,COc1ccccc1-c1ccc(=O)n(CC(=O)NCc2ccc3c(c2)OCO3)n1,0.0292
